Consider 5 molecules from PMC4824069.

Protein sequences, listed by entry. Tags and fused reporters are not part of them.
UniProt P68400: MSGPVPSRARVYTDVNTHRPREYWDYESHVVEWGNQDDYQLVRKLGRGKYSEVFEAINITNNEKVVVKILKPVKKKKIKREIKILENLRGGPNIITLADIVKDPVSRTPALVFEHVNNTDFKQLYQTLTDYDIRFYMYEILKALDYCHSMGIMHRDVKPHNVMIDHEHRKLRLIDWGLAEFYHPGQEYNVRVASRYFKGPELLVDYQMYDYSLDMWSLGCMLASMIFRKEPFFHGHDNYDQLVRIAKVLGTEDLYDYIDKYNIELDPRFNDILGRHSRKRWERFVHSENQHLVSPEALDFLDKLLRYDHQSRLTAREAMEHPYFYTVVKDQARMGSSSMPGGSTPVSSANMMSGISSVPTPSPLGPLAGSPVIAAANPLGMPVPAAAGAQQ
UniProt P67870: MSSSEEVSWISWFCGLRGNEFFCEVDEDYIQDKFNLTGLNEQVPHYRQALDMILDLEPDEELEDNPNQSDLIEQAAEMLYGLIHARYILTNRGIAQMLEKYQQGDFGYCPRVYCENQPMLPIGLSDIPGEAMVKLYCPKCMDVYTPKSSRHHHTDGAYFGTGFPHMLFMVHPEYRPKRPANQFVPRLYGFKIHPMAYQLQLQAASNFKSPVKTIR

Like-named read-outs stand apart in the source and are kept apart here. These are yes or no findings as the source states them, for the method shown. For some assays here: In cells and extracts the contact can be indirect. For some assays here: Tags and fused reporters may be left off the sequences shown. Some results given as binding are weak or reduced against the parent protein; the word gives no strength.

One assay addresses GST-CK2α fusion protein (UniProt P68400). Description: pull-down; GST-CK2α/α’/β coupled to Glutathione-Sepharose, incubated with Flag-DPF3a/b recombinant proteins 2 h at 4°C; 4.2 mM Na2HPO4, 2 mM KH2PO4, 250 mM NaCl, 10 mM KCl, 0.1% NP40, 0.5% BSA, pH 7.2; Western blot; both purified. Background: A western blot detects proteins with antibodies after separation by electrophoresis.

The next assay addresses GST-CK2α’ fusion protein (UniProt P19784). The assay is described as above.
In the next assay the target is GST-CK2β fusion protein (UniProt P67870). The assay is described as above.
Assay [1] deals with T1, HA-tagged HEY1 (UniProt Q9Y5J3).
T1 sequence: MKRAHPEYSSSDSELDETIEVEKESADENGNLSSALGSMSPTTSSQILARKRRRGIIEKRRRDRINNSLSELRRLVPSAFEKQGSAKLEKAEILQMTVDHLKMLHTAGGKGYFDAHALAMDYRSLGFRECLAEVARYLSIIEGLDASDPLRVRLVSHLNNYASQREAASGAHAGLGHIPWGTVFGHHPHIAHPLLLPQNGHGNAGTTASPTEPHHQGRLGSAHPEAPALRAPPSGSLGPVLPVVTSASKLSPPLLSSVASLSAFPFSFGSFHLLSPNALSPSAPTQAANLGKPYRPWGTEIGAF
Description: co-IP; HEK293T (results: HEK293) transiently co-transfected with Flag- and HA-tagged proteins; 500 μg extract on Flag M2 or HA matrix 2 h at 4°C; 20 mM Tris-HCl pH 7.4, 150 nM NaCl (so in the source), 1 mM EDTA, 1% Triton; Western blot.

The target of assay [2] is T1, HA-tagged HEY1. Described as above. The source holds these as a separate data set.

With “Flag-DPF3b recombinant protein (GST pull-down) (from UniProt Q92784-1 1-378)”, the binding result with GST-CK2α fusion protein, with GST-CK2α’ fusion protein and with GST-CK2β fusion protein was “no binding” each time.

Consider “Flag-tagged BAF60c (from UniProt Q6STE5 1-483)”, for which the binding result with HA-tagged HEY1 [1] is listed as “no binding”.

B1: Flag-DPF3a recombinant protein (GST pull-down) (protein, UniProt Q92784-2 1-357)
chain: MATVIHNPLKALGDQFYKEAIEHCRSYNSRLCAERSVRLPFLDSQTGVAQNNCYIWMEKRHRGPGLAPGQLYTYPARCWRKKRRLHPPEDPKLRLLEIKPEVELPLKKDGFTSESTTLEALLRGEGVEKKVDAREEESIQEIQRVLENDENVEEGNEEEDLEEDIPKRKNRTRGRARGSAGGRRRHDAASQEDHDKPYVCDICGKRYKNRPGLSYHYAHTHLASEEGDEAQDQETRSPPNHRNENHRPQKGPDGTVIPNNYCDFCLGGSNMNKKSGRPEELVSCADCGRSAHLGGEGRKEKEAAAAARTTEDLFGSTSESDTSTFHGFDEDDLEEPRSCRGRRSGRGSPTADKKGSC
Regarding B1, the binding result in the assay with GST-CK2α fusion protein is “binds weakly”; with GST-CK2β fusion protein it was “binds”.

B2: Flag-tagged DPF3a aa292–357 (domain or fragment, UniProt Q92784-2 292-357)
chain: HLGGEGRKEKEAAAAARTTEDLFGSTSESDTSTFHGFDEDDLEEPRSCRGRRSGRGSPTADKKGSC
As for B2, in the assay with HA-tagged HEY1 [2], the binding result is reported as “no binding”.

B3: Flag-tagged DPF3a aa1–246 (domain or fragment, UniProt Q92784-2 1-246)
chain: MATVIHNPLKALGDQFYKEAIEHCRSYNSRLCAERSVRLPFLDSQTGVAQNNCYIWMEKRHRGPGLAPGQLYTYPARCWRKKRRLHPPEDPKLRLLEIKPEVELPLKKDGFTSESTTLEALLRGEGVEKKVDAREEESIQEIQRVLENDENVEEGNEEEDLEEDIPKRKNRTRGRARGSAGGRRRHDAASQEDHDKPYVCDICGKRYKNRPGLSYHYAHTHLASEEGDEAQDQETRSPPNHRNENH
As for B3, the binding entry in the assay with HA-tagged HEY1 [2] was “no binding”.
